Results reported in the antibiotic and cytotoxicity screens of Wong et al. (2023).
This is one part of the list.

What was measured:
HSkMC = human skeletal muscle cells; assay: cytotoxicity call (relative viability < 0.9); conditions: 10 µM
HepG2 = assay: cytotoxicity call (relative viability < 0.9); conditions: 10 µM
S. aureus RN4220 = assay: growth inhibition call (relative growth <= 0.2); conditions: 50 µM

SMILES | cytotoxicity call (HSkMC) | cytotoxicity call (HepG2) | growth inhibition call (S. aureus RN4220)
CO[C@@H](C(=O)N(C)C[C@@H]1OCc2ccccc2-c2c(n(C)c3ccccc23)C(=O)N([C@H](C)CO)C[C@@H]1C)c1ccccc1 | inactive | inactive | inactive
COc1cccc(S(=O)(=O)N[C@@H]2CC[C@H](CCn3cc(-c4ccccc4OC)nn3)O[C@H]2CO)c1 | inactive | inactive | inactive
C[C@@H]1CCCCO[C@H](CN(C)CC2CC2)[C@H](C)CN([C@@H](C)CO)C(=O)c2cc(NS(=O)(=O)c3ccc(Cl)cc3)ccc2O1 | inactive | inactive | inactive
C[C@H](CO)N1C[C@H](C)[C@H](CN(C)C(=O)Nc2ccc3c(c2)OCO3)Oc2ccc(NC(=O)C3CC3)cc2CC1=O | inactive | inactive | inactive
Cc1ccc(S(=O)(=O)Nc2cccc3c2O[C@@H](CN(C)C(=O)NC(C)C)[C@@H](C)CN([C@@H](C)CO)C3=O)cc1 | inactive | inactive | inactive
C[C@H](CO)N1C[C@H](C)[C@@H](CN(C)C(=O)Nc2ccccc2C(F)(F)F)OCc2cnnn2CCCC1=O | inactive | inactive | inactive
CN1C(=O)c2cc(NC(=O)C3CCCC3)ccc2OC[C@@H]2O[C@@H](CC(=O)NCCc3ccncc3)CC[C@@H]21 | inactive | inactive | inactive
C[C@H]1CN([C@@H](C)CO)C(=O)c2cc(NC(=O)CCN3CCOCC3)ccc2O[C@H]1CN(C)C(=O)Nc1ccc(F)cc1 | inactive | inactive | inactive
CNC[C@H]1Oc2ccc(NC(=O)Cn3cnnn3)cc2CC(=O)N([C@H](C)CO)C[C@@H]1C | inactive | inactive | inactive
COc1ccc(NC(=O)Nc2cccc3c2O[C@@H](CN(C)C(=O)Nc2ccc(C(F)(F)F)cc2)[C@@H](C)CN([C@H](C)CO)C3=O)cc1 | inactive | inactive | inactive
C[C@@H]1CN([C@@H](C)CO)C(=O)c2cc(NC(=O)c3ccccc3)ccc2O[C@@H](C)CCCCO[C@@H]1CN(C)Cc1ccncc1 | inactive | inactive | inactive
C[C@@H]1CN([C@H](C)CO)C(=O)c2cc(NC(=O)Cn3cnnn3)ccc2O[C@@H]1CN(C)S(=O)(=O)c1ccc(Cl)cc1 | inactive | inactive | inactive
C#Cc1ccc(C(=O)NO)s1 | inactive | inactive | inactive
O=C(O)CCCCCCCCCCCC[C@@H]1C=CCC1 | inactive | inactive | inactive
C=CCOC(=O)N(C)C[C@H]1OCCCC[C@H](C)Oc2ccc(NC(=O)Nc3ccccc3)cc2C(=O)N([C@@H](C)CO[Si](C)(C)C(C)(C)C)C[C@H]1C | inactive | active | inactive
CN1CCN(C(=O)C[C@H]2C=C[C@H](NC(=O)c3ccc4c(c3)OCO4)[C@H](CO)O2)CC1 | inactive | inactive | inactive
C[C@@H]1CN([C@H](C)CO)C(=O)c2cc(NC(=O)Nc3ccccc3)ccc2O[C@@H](C)CCCCO[C@H]1CN(C)C(=O)C1CCCCC1 | inactive | inactive | inactive
C[C@H](C(=O)O)N1C(=O)c2ccccc2C1=O | inactive | inactive | inactive
C[C@H]1CN([C@@H](C)CO)C(=O)c2cccc(NC(=O)Nc3ccc(C(F)(F)F)cc3)c2O[C@H]1CN(C)C(=O)Nc1ccc2c(c1)OCO2 | inactive | inactive | active
COc1ccc(CN(C)C[C@@H]2OCCCC[C@@H](C)Oc3ccc(NC(=O)NC(C)C)cc3C(=O)N([C@H](C)CO)C[C@H]2C)cc1 | inactive | inactive | inactive
NC/C(=C/F)CCc1ccc(F)cc1 | inactive | inactive | inactive
O=c1cc[nH]c(=S)[nH]1 | inactive | inactive | inactive
C[C@H]1CN([C@@H](C)CO)C(=O)Cc2cc(NC(=O)Nc3ccccc3)ccc2O[C@@H]1CN(C)S(=O)(=O)c1cn(C)cn1 | inactive | inactive | inactive
COC[C@@H](C)Nc1ncnc2nc[nH]c12 | inactive | inactive | inactive
C[C@@H]1CCCCO[C@@H](CN(C)Cc2ccc(C(=O)Nc3ccccc3N)cc2)[C@@H](C)CN([C@H](C)CO)C(=O)c2cc(NS(=O)(=O)c3ccc(Cl)cc3)ccc2O1 | inactive | inactive | inactive
C[C@@H]1CCCCO[C@@H](CN(C)Cc2ccc(Cl)c(Cl)c2)[C@H](C)CN([C@H](C)CO)C(=O)c2cc(NS(=O)(=O)c3ccc(F)cc3)ccc2O1 | active | active | inactive
COc1ccc(NC(=O)Nc2ccc3c(c2)CC(=O)N([C@H](C)CO)C[C@@H](C)[C@H](CN(C)S(=O)(=O)c2cn(C)cn2)O3)cc1 | inactive | inactive | inactive
